Inconclusive means that the source gave no clear call. Such entries were picked first, then a sample of the others. Potencies of inconclusive entries are left out as doubtful fits. Activity calls are given as the source filed them. The call rests on the fitted dose curve; in most records, active means well fitted inhibition curve with a large enough effect; inconclusive means small, poorly fitted or top-dose-only effect; inactive means flat fitted curve, though single readings scatter.
Target: Dual specificity protein kinase CLK4 (Homo sapiens) (UniProt Q9HAZ1)
Chain of UniProt Q9HAZ1 (Q9HAZ1 whole entry, looked up): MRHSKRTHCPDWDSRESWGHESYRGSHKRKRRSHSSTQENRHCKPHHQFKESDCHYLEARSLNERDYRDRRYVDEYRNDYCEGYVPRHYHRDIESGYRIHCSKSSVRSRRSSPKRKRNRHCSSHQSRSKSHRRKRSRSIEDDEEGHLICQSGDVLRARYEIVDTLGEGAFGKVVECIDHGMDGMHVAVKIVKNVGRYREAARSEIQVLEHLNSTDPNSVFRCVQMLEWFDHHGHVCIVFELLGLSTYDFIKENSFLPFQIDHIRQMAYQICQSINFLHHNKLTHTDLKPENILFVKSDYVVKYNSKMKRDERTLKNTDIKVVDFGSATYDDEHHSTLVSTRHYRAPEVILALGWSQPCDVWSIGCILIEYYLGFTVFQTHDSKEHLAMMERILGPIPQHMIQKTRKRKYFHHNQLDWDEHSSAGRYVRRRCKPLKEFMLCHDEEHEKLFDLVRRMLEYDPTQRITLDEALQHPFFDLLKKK
Assay: qHTS Assay for Inhibitors of CDC-like Kinase 4 (Kinase-Glo Assay) (AID 1770); further: nearly all actives have a fitted effect of over 65% in size
Settings: recombinant Clk4, Kinase-Glo ATP depletion luminescence; series mostly up to 66.7 µM
Outline: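 Substrate mix (RS peptide 100 uM, ATP 1 uM) dispensed, compound pinned in, then Clk4 added to 25 nM final. Incubated 4.5 h at RT; Kinase-Glo reagent added, luminescence read after 5 min.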
Potency means the concentration at half of the fitted maximal effect; tags describe the fitted curve by direction and shape.

Q: With COc1ccc(-n2c(=O)cnc3cnc(N4CCN(C)CC4)nc32)cc1 as the molecule, how does the Potency read?
A: The Potency was inconclusive [falling, partial curve].

Q: For CNc1ncnc2ccc(-c3cccc(OC)c3)cc12, which Potency is on record?
A: The Potency was active: 0.501 µM.

Q: How did the Potency turn out when c1ccc2c(NC3CC3)nc(-c3ccoc3)nc2c1 was run?
A: Its Potency is inconclusive [falling, partial curve].

Q: How did the Potency turn out when COc1ccc(CNc2ncncc2-c2cccc(NS(C)(=O)=O)c2)c(OC)c1 was run?
A: Its Potency is inconclusive [falling, partial curve].

Q: How did the Potency turn out when COc1ccccc1CNc1ncncc1-c1cccnc1 was run?
A: Its Potency is inconclusive [falling, partial curve].

Target: Dual specificity protein kinase CLK4 (Homo sapiens) (UniProt Q9HAZ1)
Assay: qHTS Assay for Inhibitors of CDC-like Kinase 4 (ADP-Glo Assay) (AID 1771); further: nearly all actives have a fitted effect of over 70% in size
Settings: recombinant CLK4, ADP-Glo luminescence; series mostly up to 80 µM
Outline: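 Compounds are pin-transferred onto substrate mix (100 uM RS peptide, 1 uM ATP), then 25 nM Clk4 is added. After 1 hr at room temperature, ADP-Glo reagent runs 45 min, detection reagent 30 min, then luminescence is read.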

Q: Which Potency does the source give for Cc1ccccc1-c1nccc(NCc2cccnc2)n1 here?
A: Its Potency is active: 28.2 µM.

Q: How did the Potency turn out when c1csc(CNc2nc(-c3ccoc3)nc3ccccc23)c1 was run?
A: The Potency was inconclusive [falling, partial curve].

Q: Which Potency does the source give for CN(C)C(=O)c1ccc(-c2ccc3ncnc(NCCN4CCOCC4)c3c2)cc1 here?
A: Its Potency is inconclusive [falling, single point].

Q: Which Potency does the source give for CN(C)c1ncnc2ccc(-c3cccc(C#N)c3)cc12 here?
A: Its Potency is active: 15.8 µM.

Q: With CCNc1ncc2nc(-c3cccs3)c(=O)n(C[C@H]3CCCO3)c2n1 as the molecule, how does the Potency read?
A: The Potency was inconclusive [falling, single point].

Q: With CN1CCN(c2ncc3nc(-c4cccs4)c(=O)n(CCC#N)c3n2)CC1 as the molecule, how does the Potency read?
A: The Potency was inconclusive [falling, single point].

Q: Cc1cnc(CNc2cc(-c3cccc(NS(C)(=O)=O)c3)ncn2)cn1 was tested. Which Potency did it give?
A: The Potency was active: 15.8 µM.

Q: How did the Potency turn out when CCNc1ncc2nc(-c3ccc(Cl)cc3)c(=O)n(Cc3cccs3)c2n1 was run?
A: Its Potency is inconclusive [falling, single point].

Q: CN(C)C(=O)c1ccc(-c2ccc3ncnc(N4CCNCC4)c3c2)cc1 was tested. Which Potency did it give?
A: The Potency was inconclusive [falling, partial curve].

Q: COc1ccccc1-c1nc(NCc2cccs2)c2ccccc2n1 was tested. Which Potency did it give?
A: Its Potency is inconclusive [falling, single point].

Q: With COc1ccccc1-c1cc(Nc2ccc(F)cc2)ncn1 as the molecule, how does the Potency read?
A: Its Potency is inconclusive [falling, partial curve].

Q: For COc1ccccc1-c1cncnc1NCc1ccccc1, which Potency is on record?
A: The Potency was inconclusive [falling, single point].

Q: For COc1ccc(CNc2cc(-c3cccc(C#N)c3)ncn2)c(OC)c1, which Potency is on record?
A: The Potency was inconclusive [falling, single point].

Q: CCNc1ncc2nc(C)c(=O)n(Cc3ccc(F)cc3)c2n1 was tested. Which Potency did it give?
A: The Potency was active: 15.8 µM.

Q: c1ccc(Nc2ncncc2-c2ccc3c(c2)OCO3)cc1 was tested. Which Potency did it give?
A: The Potency was inconclusive [falling, single point].

Q: Which Potency does the source give for COc1ccc(Oc2ncc3nc(-c4cc(F)cc(F)c4)c(=O)n(C[C@H]4CCCO4)c3n2)cc1 here?
A: Its Potency is inconclusive [falling, single point].

Q: For Cc1ccccc1-c1cc(NCc2ccccc2)ncn1, which Potency is on record?
A: Its Potency is inconclusive [falling, single point].

Q: CN(C)C(=O)c1ccc(-c2ccc3ncnc(Nc4ccccc4)c3c2)cc1 was tested. Which Potency did it give?
A: The Potency was inconclusive [falling, single point].

Q: For COc1ccc2[nH]cc(CCNc3ncncc3-c3ccc(C(=O)N(C)C)cc3)c2c1, which Potency is on record?
A: Its Potency is inconclusive [falling, single point].

Q: How did the Potency turn out when COc1ccc(-c2nc3cnc(Nc4cccc(OC)c4)nc3n(C)c2=O)cc1 was run?
A: The Potency was inconclusive [falling, partial curve].

Q: Which Potency does the source give for Cc1ccccc1-c1cncnc1NCc1ccccc1 here?
A: The Potency was “inactive”.

Q: For CC(=O)NCCNc1nc(-c2c(C)noc2C)nc2ccccc12, which Potency is on record?
A: The Potency was inconclusive [falling, single point].

Q: How did the Potency turn out when COc1ccc(-c2nc3cnc(N4CCOCC4)nc3n(Cc3cccs3)c2=O)cc1 was run?
A: Its Potency is inconclusive [falling, single point].

Q: Which Potency does the source give for COc1ccc2[nH]cc(CCNc3ccnc(-c4ccoc4)n3)c2c1 here?
A: Its Potency is inconclusive [falling, partial curve].

Q: How did the Potency turn out when Clc1ccccc1-c1nc(NCCN2CCOCC2)c2ccccc2n1 was run?
A: The Potency was inconclusive [falling, single point].

Q: Which Potency does the source give for COc1ccc2[nH]cc(CCNc3ncncc3-c3cccnc3)c2c1 here?
A: The Potency was inconclusive [falling, partial curve].

Q: CN(Cc1ccco1)c1nc(-c2ccc3c(c2)OCO3)nc2ccccc12 was tested. Which Potency did it give?
A: The Potency was inconclusive [falling, single point].

Q: How did the Potency turn out when COc1cccc(Nc2ncc3nc(C)c(=O)n(CCc4ccccc4)c3n2)c1 was run?
A: Its Potency is active: 7.08 µM.

Q: Which Potency does the source give for CN(Cc1ccco1)c1ncncc1-c1ccc2c(c1)OCO2 here?
A: Its Potency is inconclusive [falling, single point].

Q: For CN(Cc1ccco1)c1ccnc(-c2cccnc2)n1, which Potency is on record?
A: Its Potency is inconclusive [falling, single point].

Q: How did the Potency turn out when CNc1cc(-c2c(C)noc2C)ncn1 was run?
A: The Potency was inconclusive [falling, single point].

Q: CN(C)c1ccc(-c2nc(NCCN3CCOCC3)c3ccccc3n2)cc1 was tested. Which Potency did it give?
A: The Potency was inconclusive [falling, single point].

Q: How did the Potency turn out when Cn1cc(-c2nc3cnc(OCc4ccccc4)nc3n(CCC#N)c2=O)c2ccccc21 was run?
A: Its Potency is “inactive”.

Q: Which Potency does the source give for O=c1c(-c2cc(F)cc(F)c2)nc2cncnc2n1-c1ccccc1 here?
A: Its Potency is “inactive”.

Q: With Cn1cc(-c2nc3cncnc3n(Cc3ccccc3Cl)c2=O)c2ccccc21 as the molecule, how does the Potency read?
A: Its Potency is “inactive”.

Q: Which Potency does the source give for COc1ccc(-n2c(=O)cnc3cnc(N4CCN(C)CC4)nc32)cc1 here?
A: The Potency was inconclusive [falling, partial curve].

Q: Which Potency does the source give for CNc1ncnc2ccc(-c3cccc(OC)c3)cc12 here?
A: The Potency was active: 0.501 µM.

Q: How did the Potency turn out when c1ccc2c(NC3CC3)nc(-c3ccoc3)nc2c1 was run?
A: The Potency was inconclusive [falling, single point].

Q: COc1ccc(CNc2ncncc2-c2cccc(NS(C)(=O)=O)c2)c(OC)c1 was tested. Which Potency did it give?
A: The Potency was inconclusive [falling, single point].

Q: With COc1ccccc1CNc1ncncc1-c1cccnc1 as the molecule, how does the Potency read?
A: The Potency was inconclusive [falling, single point].
